# In all, about 350,000 compounds went through this assay and about 31,000 (8.9%) were called active. The inconclusive results got no clear call from the source; some entries with a clear call stand among them for comparison. The call rests on the fitted dose curve; in most records, active means well fitted inhibition curve with a large enough effect; inconclusive means small, poorly fitted or top-dose-only effect; inactive means no such curve, though single readings can be large or run the other way. Potencies beside an inconclusive call are fits to weak or partial responses and may not hold up.
# Target: Histone-lysine N-methyltransferase EHMT2 (Homo sapiens) (UniProt Q96KQ7)
# Test: qHTS Assay for Inhibitors of Histone Lysine Methyltransferase G9a; further: nearly all actives have a fitted effect of over 75% in size
# Details: G9a H3K9 monomethylation, AlphaScreen, 2 h; activity, negative = inhibition: at 59 µM (top of the series) unless noted
# How it was run: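 Step 1: enzyme (final 20 nM) with compound, 15 min RT. Step 2: substrate peptide 500 nM and SAM 20 uM, 2 h RT. Step 3: anti-H3K9me1 antibody and AlphaScreen beads, 10 min, then plate read.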
# On the % scale 0 is the no-effect control and ±100 the full control effect; potency means the concentration at half of the fitted maximal effect; tags describe the fitted curve by direction and shape.
# UniProt Q96KQ7, sequence (Q96KQ7 whole entry, looked up): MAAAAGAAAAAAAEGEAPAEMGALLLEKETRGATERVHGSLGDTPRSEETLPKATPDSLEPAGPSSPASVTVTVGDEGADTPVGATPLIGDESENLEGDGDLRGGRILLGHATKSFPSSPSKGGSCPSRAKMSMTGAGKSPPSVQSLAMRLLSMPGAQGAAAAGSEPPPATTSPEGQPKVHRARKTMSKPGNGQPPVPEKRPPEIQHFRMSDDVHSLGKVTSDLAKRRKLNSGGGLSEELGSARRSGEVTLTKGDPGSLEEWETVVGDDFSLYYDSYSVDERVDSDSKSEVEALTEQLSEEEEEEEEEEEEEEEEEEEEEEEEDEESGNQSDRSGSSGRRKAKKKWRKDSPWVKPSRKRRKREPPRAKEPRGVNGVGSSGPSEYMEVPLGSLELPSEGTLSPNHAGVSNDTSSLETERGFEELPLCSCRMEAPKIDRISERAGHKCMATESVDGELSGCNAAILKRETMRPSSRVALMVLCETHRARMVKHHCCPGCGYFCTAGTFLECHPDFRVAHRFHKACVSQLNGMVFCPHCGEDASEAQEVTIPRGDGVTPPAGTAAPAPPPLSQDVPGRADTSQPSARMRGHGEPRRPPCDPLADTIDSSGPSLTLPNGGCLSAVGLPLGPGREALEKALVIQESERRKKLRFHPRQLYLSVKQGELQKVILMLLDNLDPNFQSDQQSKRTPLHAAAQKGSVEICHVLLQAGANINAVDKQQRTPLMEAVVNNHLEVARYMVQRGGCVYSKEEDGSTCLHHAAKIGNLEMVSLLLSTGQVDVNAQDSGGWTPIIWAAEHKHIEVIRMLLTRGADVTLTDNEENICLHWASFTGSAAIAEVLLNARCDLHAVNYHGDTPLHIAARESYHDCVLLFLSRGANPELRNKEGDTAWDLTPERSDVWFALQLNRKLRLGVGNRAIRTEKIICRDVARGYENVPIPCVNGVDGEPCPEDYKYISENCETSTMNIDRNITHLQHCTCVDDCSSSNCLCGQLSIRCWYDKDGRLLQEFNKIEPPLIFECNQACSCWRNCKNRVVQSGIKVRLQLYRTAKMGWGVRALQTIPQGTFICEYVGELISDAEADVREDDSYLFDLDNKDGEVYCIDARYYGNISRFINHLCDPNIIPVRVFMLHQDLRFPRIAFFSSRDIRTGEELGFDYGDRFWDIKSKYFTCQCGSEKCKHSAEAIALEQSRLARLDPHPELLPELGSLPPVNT
Structure (SMILES),Potency,"activity, negative = inhibition"
Cc1ccc(Cn2c(=N)n(CC(=O)c3ccc([N+](=O)[O-])cc3)c3ccccc32)cc1,active: 50.1 µM,
CC(C)(C)NS(=O)(=O)c1cc(C(=O)Nc2sccc2C#N)ccc1Cl,"inconclusive: 25.1 µM [inhibitor, single point]",
CCN(Cc1ccccc1)C(=O)Cn1c(=O)n(-c2ccc(C)c(C)c2)c(=O)c2c(C)c(C)sc21,inactive,
Cc1cn2c(=O)cc(COC(=O)COc3ccccc3C)nc2s1,inactive,
O=C(NCC(=O)N(Cc1ccco1)C(C(=O)NC1CCCC1)c1ccncc1)c1cccs1 (stereo not given),"inconclusive: 22.4 µM [inhibitor, single point]",
O=c1cc(-c2ccccc2)n2c(SCc3ccc(F)cc3)nnc2[nH]1,"inconclusive: 3.16 µM [inhibitor, full curve]",
Cc1ccccc1NC(=O)CSc1nc2ncc(Cl)cc2[nH]1,"inconclusive: 79.4 µM [inhibitor, single point]",
Cc1cc(NC(=O)c2ccc(F)cc2)n(CCOC(=O)c2ccc(F)cc2)n1,"inconclusive: 79.4 µM [inhibitor, single point]",
O=C(N/N=C/c1ccccn1)c1cccc(S(=O)(=O)N2CCCC2)c1,"inconclusive: 2 µM [inhibitor, partial curve, poor fit]",
c1cc2c(cc1C1=NNC(=NC3CC3)SC1)OCCO2,"inconclusive: 56.2 µM [inhibitor, single point]",
CC1=C(c2ccc(C)cc2)S(=O)(=O)NC1=NCCCN1CCN(c2ccc(F)cc2)CC1,"inconclusive: 39.8 µM [inhibitor, partial curve, poor fit]",
CCOc1cccc(/C=N/NS(=O)(=O)c2ccc(C)c([N+](=O)[O-])c2)c1O,"inconclusive: 56.2 µM [inhibitor, partial curve, poor fit]",
COCCNS(=O)(=O)c1ccc2c(c1)oc(=O)c1cc(S(=O)(=O)NCCOC)ccc12,"inconclusive: 44.7 µM [inhibitor, partial curve, poor fit]",
O=C1C(Br)=Cc2cccc3cccc1c23,"inconclusive: 25.1 µM [inhibitor, partial curve, poor fit]",
COc1cc(C)cc2oc(=O)c(CC(=O)NCc3cccc(Cl)c3)c(C)c12,inactive,
CC1CCCCN1CCn1c(=S)[nH]c2ncccc2c1=O (stereo not given),"inconclusive: 39.8 µM [inhibitor, partial curve, poor fit]",
Fc1cc(F)c(F)c(SCCc2ccncc2)c1F,"inconclusive: 25.1 µM [inhibitor, single point]",
CCCC1Nc2ccc(C(=O)O)cc2C2C=CCC12 (stereo not given),"inconclusive: 35.5 µM [inhibitor, single point]",
CC(=O)N1CCc2c(sc3nc(SCC(C)C)n(-c4ccc(F)c(Cl)c4)c(=O)c23)C1,"inconclusive: 11.2 µM [inhibitor, partial curve, poor fit]",
COc1ccccc1OCCOc1ccc(/C=C2/C(=N)N3OC(C)=CC3=NC2=O)cc1OC,active: 70.8 µM,
CCN(CC)c1ccc(NC(=O)CSc2nc(-c3cccs3)cc(C(F)(F)F)n2)cc1,"inconclusive: 1.58 µM [inhibitor, partial curve, poor fit]",
O=S(=O)(Nc1ncccn1)c1ccc(NS(=O)(=O)c2cc(Cl)ccc2Cl)cc1,"inconclusive: 79.4 µM [inhibitor, partial curve]",
CCOc1ccc(-n2nc3ccc(NC(=O)COc4ccc(OC)cc4)cc3n2)cc1,"inconclusive: 10 µM [inhibitor, partial curve, poor fit]",
COc1cc(CO)cc(Br)c1OCC(=O)O,active: 50.1 µM,

Structure (SMILES),Potency,"activity, negative = inhibition"
O=C(NCc1ccccn1)/C(=N/O)c1ccccc1,inactive,
Cn1cc(Cl)c(C(=O)NNC(=S)NCc2ccco2)n1,active: 39.8 µM,
CC(Oc1ccc(F)cc1)C(=O)Nc1cccc(-c2nn[nH]n2)c1 (stereo not given),active: 25.1 µM,
CCN(CC)c1ccc(NS(=O)(=O)c2cc3[nH]c(=O)c(=O)[nH]c3cc2C)c(C)c1,active: 14.1 µM,
Oc1cccc(C(=S)N2CCN(Cc3ccccc3)CC2)c1,,inconclusive: -126% [inhibitor]
COc1ccc(CN(C)CC(=O)Nc2ccc(SC(F)F)cc2)cc1OC,inactive,
CC1=C(C(=O)Nc2nc3ccccc3s2)C(c2ccco2)C(C#N)=C(SCC(=O)NC2CCCCC2)N1 (stereo not given),"inconclusive: 89.1 µM [inhibitor, single point]",
CC(=O)/C(N=Nc1ccc(-n2ccc(C(F)(F)F)n2)cc1)=C(\C)O,"inconclusive: 79.4 µM [inhibitor, single point]",
CN(C)S(=O)(=O)c1ccc(N2CCCC2)c(C(=O)Nc2ccccc2Br)c1,active: 44.7 µM,
CC(C)(C)c1ccc(C(=O)C=[N+]=[N-])cc1,"inconclusive: 2 µM [inhibitor, partial curve, poor fit]",
O=C1CCC([N+](=O)[O-])C(c2cccc([N+](=O)[O-])c2)N1 (stereo not given),inactive,
COc1cc(C(=O)OCC(=O)NCC2CCCCC2)ccc1OCC(C)C,inactive,
Cc1ccc(-n2c(SCC(=O)NCCN3C(=O)CSC3=O)nnc2-c2ccccc2)cc1,"inconclusive: 28.2 µM [inhibitor, single point]",
CCOc1ccc(NC(=O)C(c2ccccn2)N(C(=O)CCl)c2ccc(F)cc2)cc1 (stereo not given),active: 7.08 µM,
CN(C)S(=O)(=O)c1ccc(C(=O)NCC(=O)N/N=C/c2ccccc2)cc1,"inconclusive: 89.1 µM [inhibitor, partial curve, poor fit]",
Cc1ccc(-c2nnn(CC(=O)N(Cc3ccc(F)cc3)C(C(=O)NC3CCCC3)c3ccncc3)n2)o1 (stereo not given),"inconclusive: 8.91 µM [inhibitor, partial curve, poor fit]",
Cc1ccc(NC(=S)NNC(=O)C2CC2c2ccc(C)cc2)cc1 (stereo not given),"inconclusive: 35.5 µM [inhibitor, single point]",
Cn1c(=O)c2cn(-c3ccc4c(c3)OCCO4)cc2n(C)c1=O,,inconclusive: -63.5% [inhibitor]
CCN(CC)CCCNC(=O)c1cc(-c2cccc(Cl)c2)on1,inactive,
Cc1ccc(C2CC2c2n[nH]c(=S)n2-c2cccc(C)c2)cc1 (stereo not given),active: 14.1 µM,
CCOc1ccc(N2CC(C(=O)Nc3cc(OCC)c(N4CCOCC4)cc3OCC)CC2=O)cc1 (stereo not given),"inconclusive: 79.4 µM [inhibitor, single point]",
Cc1sc2nc(COC(=O)CNC(=O)c3ccc(C(C)(C)C)cc3)[nH]c(=O)c2c1C,inactive,
Cc1cc(SCC(=O)NC(=O)NCc2ccco2)nc2ccccc12,"inconclusive: 44.7 µM [inhibitor, partial curve, poor fit]",
Cc1ccc(Cl)cc1N1CCN(Cc2nnc(-c3ccc4c(c3)OCO4)o2)CC1,inactive,

Structure (SMILES),Potency,"activity, negative = inhibition"
O=C1[C@@H]2C(c3ccc(F)cc3)=NO[C@@H]2C(=O)N1Cc1ccccc1,inactive,
CCSc1ncc(CO)c(N)n1,inactive,
CCOC(=O)CCNC(=O)Nc1cc2nc(C)n(Cc3cccc(Cl)c3)c2nc1C,inactive,
CCSC1=N/C(=C\c2ccc(C)s2)C(=O)S1,"inconclusive: 4.47 µM [inhibitor, partial curve, poor fit]",
O=C(CSc1ccc(Cl)cc1)Nc1nnc(-c2cccc([N+](=O)[O-])c2)s1,active: 39.8 µM,
Cn1c(C(O)c2ccc3c(c2)OCO3)nc2ccccc21 (stereo not given),,inactive: -3.84% [at 12.7 µM]
CCOC(=O)c1ccc(NC(=O)c2ccc(NC(=O)C3CCCO3)cc2)cc1 (stereo not given),inactive,
O=C(NCCC1=CCCCC1)C(=O)NCC(c1ccco1)N1CCN(c2ccc(F)cc2)CC1 (stereo not given),inactive,
Fc1ccc(-c2noc3ncnc(NCCCN4CCN(c5ccccc5)CC4)c23)cc1,"inconclusive: 8.91 µM [inhibitor, partial curve, poor fit]",
O=C(COc1ccc(Br)cc1Cl)NC(=S)Nc1ccccn1,active: 79.4 µM,
CC1=Nc2nc(N3CCCCC3)c(C#N)c3c4c(nc(c23)N1)N(c1ccc(C(C)C)cc1)C(=O)C4,"inconclusive: 39.8 µM [inhibitor, single point]",
COc1ccc(/C=C2/Sc3ccc(C(=O)NCCCN4CCOCC4)cc3NC2=O)cc1OC,"inconclusive: 31.6 µM [inhibitor, full curve, poor fit]",
Nc1nc2n(n1)C1(CCCCC1)C1=C(CCCC1)N2,"inconclusive: 89.1 µM [inhibitor, single point]",
COc1ccc(-c2nc3c(C#N)c[nH]n3c2NC2CCCC2)c(OC)c1,"inconclusive: 39.8 µM [inhibitor, partial curve, poor fit]",
COc1cccc(-n2cc3c(=O)n(C)c(=O)n(C)c3c2)c1,active: 35.5 µM,
CC(/C=C1\SC(=S)N(CCCC(=O)Nc2ccc(C(=O)O)c(O)c2)C1=O)=C\c1ccccc1,"inconclusive: 20 µM [inhibitor, single point]",
CCc1cc(C(=O)Nc2cnn(Cc3ccccc3C)c2)no1,"inconclusive: 39.8 µM [inhibitor, partial curve, poor fit]",
COc1ccc(S(=O)(=O)NCC(c2ccco2)N2CCOCC2)cc1OC (stereo not given),active: 12.6 µM,
Cc1cccc(C(=O)NCc2ccco2)c1,,inactive: 14.1% [at 0.501 µM]
COc1cccc(-n2c(C)n[nH]c2=O)c1,inactive,
CCC(=O)NC1CCc2cccc(OC)c2C1 (stereo not given),"inconclusive: 0.224 µM [inhibitor, partial curve, poor fit]",
CC1CC(C)CN(C(=O)/C=C/c2ccc([N+](=O)[O-])s2)C1 (stereo not given),,inconclusive: -59.1% [inhibitor] [at 12.7 µM]

# From PubChem BioAssay AID504332 (National Center for Advancing Translational Sciences (NCATS), 2011)
